PubChem BioAssay AID1345083 (National Center for Advancing Translational Sciences (NCATS), 2018)
Several values for one entry are separate records, joined by “and”; a condition that tells them apart may be missing. Equal values may be shown once. In all, about 94,000 compounds went through this assay and about 6,200 (6.6%) were called active. This list was built around the results that the source calls inconclusive (neither active nor inactive); the mix of calls is not that of the screen. Calls follow the shape of the dose curve; as a rule, active = well fitted inhibition curve with a large enough effect; inconclusive = small, poorly fitted or top-dose-only effect; inactive = flat fitted curve, though single readings scatter. Potencies beside an inconclusive call are fits to weak or partial responses and may not hold up.

test: Cytotoxic Profiling in HEK 293 Cell Line of Diverse Libraries Using Quantitative High-Throughput Screening; settings: HEK 293 viability, ATP luminescence (CellTiter-Glo), 48-72 h; activity change, negative = cytotoxicity: at 115 µM (top of the series) unless noted; series mostly up to 115 µM; also: nearly all actives have a fitted effect of over 60% in size
In short: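 Luminescence from cellular ATP, measured with CellTiter-Glo, indicates HEK 293 viability. Cells plated at 250 cells/well are treated with compound for 48 or 72 hr at 37 degree Celsius before reagent addition.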
% is scaled to controls: 0 for no effect and ±100 for the full control effect; potency is read from the fitted curve at half-maximal effect; tags tell the direction and shape of the fitted curve.

Row | Compound | Potency | activity change, negative = cytotoxicity | outcome
1 | CCn1cc(-c2ccncc2)cc1C(=O)NCc1cccc(F)c1 | inconclusive: 56.2 µM [inhibitor, partial curve, poor fit] | – | –
2 | Cc1cccc(-c2cccc(CN3CCC(N[S+](C)(=O)[O-])CC3)c2)c1 | inconclusive: 89.1 µM [inhibitor, single point] | – | –
3 | COCC(=O)N1CCCC(C(=O)N2CCC(c3nc4ncccc4[nH]3)C2)C1 (configuration not stated) | – | inactive: 0.0073% | –
4 | CCCN1C(=O)CCc2cc(NC(=O)NCCCOCC)ccc21 | inconclusive: 89.1 µM [inhibitor, single point] | – | –
5 | CC(C)Oc1ccc2c(NC(=O)c3cccnn3)nn(CC(F)(F)F)c2c1 | inconclusive: 31.6 µM [inhibitor, full curve] | – | –
6 | Fc1ccc(-c2ccc3ncc(Nc4ccc5c(c4)OCCO5)n3n2)cc1 | inconclusive: 100 µM [inhibitor, partial curve] | – | –
7 | Cc1ncc2n1C(=O)N(C1CCN(C(=O)Nc3ccc(Cl)cc3)CC1)C2 | inconclusive: 35.5 µM [inhibitor, full curve, poor fit] | – | –
8 | O=C(NCc1ccc(F)cc1F)C1CCN(C(=O)c2ccc(-c3cncnc3)cc2)CC1 | – | inactive: 4.43% | –
9 | CNC(=O)C(C)N(C)C(=O)c1coc(COc2ccc3ccc(OC)cc3c2)n1 (configuration not stated) | inconclusive: 50.1 µM [inhibitor, partial curve, poor fit] | – | –
10 | O=C(CCC1CCN(c2cc(NC3CC3)ncn2)CC1)N1CCN(c2ccccc2F)CC1 | inconclusive: 50.1 µM [inhibitor, partial curve, poor fit] | – | –
11 | O=C(Cc1ccccc1)NCC1CN(Cc2cccnc2)CC12CN(c1ccccc1)C2 (configuration not stated) | inconclusive: 112 µM [inhibitor, partial curve, poor fit] | – | –
12 | O=C(Cc1ccsc1)NC1CCCN(c2cc(-c3ccc(F)cc3)[nH]n2)C1 (configuration not stated) | inconclusive: 44.7 µM [inhibitor, partial curve, poor fit] | – | –
13 | Cc1cccc(CN2CCC3(CC2)OC(=O)N(Cc2cccnc2)C3(C)c2ccccc2)c1 (configuration not stated) | inconclusive: 50.1 µM [inhibitor, partial curve, poor fit] | – | –
14 | COc1ccc(-c2nc3cc(C)ccc3cc2CN2CCC[C@@H]2CO)cc1OC | inconclusive: 44.7 µM [inhibitor, partial curve] | – | –
15 | Cc1ccc(C2NC(=O)N(CC(=O)Nc3ccc4c(c3)OCCO4)C3=C2C(=O)OC3)cc1 (configuration not stated) | inconclusive: 35.5 µM [inhibitor, full curve] | – | –
16 | O=C(NCc1nnc2ccc(-c3ccccc3)nn12)c1ccc[nH]1 | – | inactive: -9.06% | –
17 | Cc1noc(C)c1-c1cc2cc(CN(C)C)oc2c(NCCc2ccccc2)n1 | active: 56.2 µM | – | –
18 | Cn1c(=O)n([C@@H]2CCN(C(=O)CCc3nc4ccccc4s3)C2)c2ncccc21 | – | inactive: -12.5% | –
19 | COc1ccc(C(=O)N2CCC(N3C(=O)[C@H]4CN(Cc5ccccc5)C[C@H]4C3=O)CC2)cc1 | inconclusive: 79.4 µM [inhibitor, single point] | – | –
20 | Cc1ccc(O)c(CN2CC[C@@H](c3ccc(F)cc3)[C@H](O)C2)c1 | inconclusive: 50.1 µM [inhibitor, partial curve, poor fit] | – | –
21 | O=C(Cc1ccc(F)cc1)NC1CCN(Cc2ccc(-c3ccsc3)cc2)C1 (configuration not stated) | inconclusive: 50.1 µM [inhibitor, partial curve, poor fit] | – | –

Row | Compound | Potency | activity change, negative = cytotoxicity | outcome
22 | O=C1NCCCCCCN(C(=O)c2ccco2)[C@H]2C[C@H](C(=O)N3CCN(c4ccccn4)CC3)C[C@@H]12 | – | inactive: 1.85% | –
23 | CSc1cccc(NC(=O)N[C@H]2C[C@@H](C(=O)N[C@@H](CCCNC(=O)CC(C)(C)C)C(N)=O)N(C(=O)CC(C)(C)C)C2)c1 | – | inactive: -17.2% | –
24 | COCCOC1CN(C2CCN(C(=O)Cc3cccc(F)c3)CC2)C12CCCCC2 (configuration not stated) | inconclusive: 79.4 µM [inhibitor, single point] | – | –
25 | Nc1ncccc1CN1CC[C@@H]2OCC(=O)N(Cc3ccc(O)cc3)[C@H]2CC1 | inconclusive: 70.8 µM [inhibitor, partial curve, poor fit] | – | –
26 | CCN1Cc2ccccc2N(CC(O)Cc2ccccc2)CCC1=O (configuration not stated) | inconclusive: 79.4 µM [inhibitor, partial curve, poor fit] | – | –
27 | CN1CCCCCCN(S(=O)(=O)c2cccc(F)c2)CCC1=O | inconclusive: 79.4 µM [inhibitor, partial curve] | – | –
28 | Cc1ccccc1C(=O)N[C@@H]1CN(C)C[C@H]1CN(C)C | inconclusive: 79.4 µM [inhibitor, partial curve, poor fit] | – | –
29 | C=CCN(Cc1ccc(C#N)cc1)Cc1cccnc1 | inconclusive: 89.1 µM [inhibitor, single point] | – | –
30 | Cc1nc2c(c(-c3ccc(Cl)cc3)n1)CCN(C(=O)c1ccc(F)cc1)CC2 | – | inactive: -25.9% | –
31 | Cc1ccc(C2NC(=O)N(CC(=O)Nc3ccccc3)C3=C2C(=O)OC3)cc1 (configuration not stated) | inconclusive: 44.7 µM [inhibitor, partial curve, poor fit] | – | –
32 | CC(C)S(=O)(=O)N1CCC(OCc2noc(C3CCCO3)n2)CC1 (configuration not stated) | – | inactive: 0.452% | –
33 | O=C(c1ccc(Cl)cc1)N1CC2(CCCN2Cc2ccccn2)Cc2ccccc21 (configuration not stated) | inconclusive: 50.1 µM [inhibitor, partial curve, poor fit] | – | –
34 | COc1cccc(-c2cccc(C(=O)N3CCN(C(=O)c4ccc(F)cc4)CC3)c2)c1 | active: 28.2 µM | – | –
35 | Cn1cc(-c2cnc(Nc3ccc(F)c(Cl)c3)c3c2CCO3)cn1 | inconclusive: 50.1 µM [inhibitor, partial curve, poor fit] | – | –
36 | Cc1ccccc1OCc1nc(C2CCOC2)no1 (configuration not stated) | – | inactive: -9.3% | –
37 | CCOC(=O)C1=CN(CC(=O)Nc2ccc(F)cc2C)S(=O)(=O)N=C1C | inconclusive: 89.1 µM [inhibitor, single point] | – | –
38 | COc1cccc(CNC(=O)C2Cn3cccc3C(=O)N2Cc2ccccc2)c1OC (configuration not stated) | – | inactive: -18.2% | –
39 | CN(C)c1cccc(C(=O)N2CCNc3cnc(Nc4cccc(C(F)(F)F)c4)nc3C2)c1 | inconclusive: 44.7 µM [inhibitor, partial curve, poor fit] | – | –
40 | O=C(c1ccco1)N1CCOc2ccc(CN3CCc4ccccc4C3)cc2C1 | inconclusive: 39.8 µM [inhibitor, full curve, poor fit] | – | –
41 | O=C(NCC(=O)N1CCCCC1)c1ccc(-c2cnc3ccccc3c2)cc1 | active: 44.7 µM | – | –
42 | CC1Oc2ccc(NC(=O)CC(C)(C)C)cc2CN(Cc2ccccc2F)C1=O (configuration not stated) | – | inactive: -42.9% | –

Row | Compound | Potency | activity change, negative = cytotoxicity | outcome
43 | CC1(C)[C@H](Cc2cc(CN3CCCCC3)on2)C[C@@H]1NC(=O)c1cccc(F)c1 | inconclusive: 89.1 µM [inhibitor, partial curve, poor fit] | – | –
44 | Cn1nc2n(c1=O)CCN(C(=O)c1ccc(OC(F)(F)F)cc1)CC2 | – | – | inactive
45 | Fc1ccccc1-c1noc(NCCc2ccc(Cl)cc2)n1 | inconclusive: 50.1 µM [inhibitor, partial curve, poor fit] | – | –
46 | O=C(CN1CCCc2nc(-c3ccncc3)ncc2C1=O)NCCN1CCOCC1 | – | inactive: -4.31% | –
47 | O=C(NC1CCN(c2nccc(Nc3ccccc3F)n2)CC1)c1ccc(C(F)(F)F)cc1 | active: 25.1 µM | – | –
48 | Cc1ccc(Nc2ccnc(N3CCC(C(=O)NCC(F)(F)F)CC3)n2)cc1 | inconclusive: 44.7 µM [inhibitor, partial curve, poor fit] | – | –
49 | O=C(c1ccc(F)cc1)N1CCC2(CNc3ccccc3[S+](=O)([O-])N2)C1 (configuration not stated) | inconclusive: 56.2 µM [inhibitor, partial curve, poor fit] | – | –
50 | CN(C)c1cccc(Oc2nnnn2[C@H]2CO[C@H]3[C@@H]2OC[C@@H]3NC(=O)NC2CCCCC2)c1 | inconclusive: 79.4 µM [inhibitor, single point] | – | –
51 | COc1ccc(-c2cc(C(=O)NC3CC3)c3c(C)nn(-c4ccccc4)c3n2)cc1 | inconclusive: 56.2 µM [inhibitor, partial curve, poor fit] | – | –
52 | CCOC(=O)Cc1csc(NC(=O)C2CC(=O)N(c3n[nH]c4cccc(F)c34)C2)n1 (configuration not stated) | inconclusive: 89.1 µM [inhibitor, single point] | – | –
53 | COc1cccc(-c2ccc(CN3CCCC3C(=O)NCc3ccc(F)cc3)cc2)c1 (configuration not stated) | inconclusive: 50.1 µM [inhibitor, partial curve, poor fit] | – | –
54 | CC(C)NC(=O)C1CCCCN1Cc1ccc(-c2ccsc2)cc1 (configuration not stated) | active: 50.1 µM | – | –
55 | O=C1CCCN1CCCN1C(=O)[C@H]2CNC[C@H]2C1=O | – | inactive: 3.96% | –
56 | Cc1ccc(CN2C(=O)[C@@H]3C[C@@H](O)CN3C3(CN(Cc4ccc(C(F)(F)F)cc4)C3)C2=O)o1 | inconclusive: 79.4 µM [inhibitor, partial curve, poor fit] | – | –
57 | Cc1ccccc1NC(=O)C1=NO[C@@H]2CN(CCc3ccccc3)C[C@H]12 | inconclusive: 112 µM [inhibitor, partial curve, poor fit] | – | –
58 | CC1(C(=O)NCc2cccnc2)CCc2cnc(Nc3ccccc3)nc21 (configuration not stated) | active: 89.1 µM | – | –
59 | CCCN1CCN(C(=O)c2c(OCC3CC3)cc(=O)n3c2CCOCC3)CC1 | – | inactive: -16.4% | –
60 | O=C(Nc1ccccc1)N1CCC2(C1)C(=O)N(CCc1ccccc1)c1ccccc12 (configuration not stated) | inconclusive: 50.1 µM [inhibitor, partial curve, poor fit] and inconclusive: 79.4 µM [inhibitor, partial curve, poor fit] | – | –
61 | C[C@@H](N)C(=O)N1CCC(C(=O)Nc2cccc(-c3cccc(Cl)c3)c2)CC1 | active: 39.8 µM | – | –
62 | Cc1ccc([S+](=O)([O-])NC[C@@H]2CC[C@H]3C[C@@H]2C3(C)C)cc1 | inconclusive: 56.2 µM [inhibitor, partial curve, poor fit] | – | –
